Test results reported in the antibiotic and cytotoxicity screens of Wong et al. (2023).
This is one part of the list.

What was measured:
HSkMC = human skeletal muscle cells; assay: cytotoxicity call (relative viability < 0.9); conditions: 10 µM
HepG2 = assay: cytotoxicity call (relative viability < 0.9); conditions: 10 µM
S. aureus RN4220 = assay: growth inhibition call (relative growth <= 0.2); conditions: 50 µM

Compound | cytotoxicity call (HSkMC) | cytotoxicity call (HepG2) | growth inhibition call (S. aureus RN4220)
C[C@H]1CCCCO[C@H](CN(C)Cc2ccc3c(c2)OCO3)[C@@H](C)CN([C@@H](C)CO)C(=O)c2cc(NC(=O)Nc3ccc(F)cc3)ccc2O1 | inactive | active | inactive
C[C@H](CO)N1C[C@H](C)[C@H](CN(C)Cc2ccc(C(F)(F)F)cc2)Oc2ccc(NS(C)(=O)=O)cc2CC1=O | inactive | inactive | inactive
C[C@H](CO)N1C[C@H](C)[C@H](CN(C)S(C)(=O)=O)Oc2ccc(NC(=O)Nc3ccc(F)cc3)cc2CC1=O | inactive | inactive | inactive
C[C@H]1CCCCO[C@@H](CN(C)C(=O)Nc2cccc3ccccc23)[C@@H](C)CN([C@@H](C)CO)C(=O)c2cc(NC(=O)Cc3ccccc3)ccc2O1 | inactive | active | inactive
COc1ccc(S(=O)(=O)Nc2ccc3c(c2)CC(=O)N([C@H](C)CO)C[C@H](C)[C@@H](CN(C)S(=O)(=O)c2ccccc2)O3)cc1 | inactive | inactive | inactive
CO[C@@H]1CN(C)C(=O)c2cc(NS(=O)(=O)CC(F)(F)F)ccc2OC[C@H](C)N(Cc2nccs2)C[C@H]1C | inactive | inactive | inactive
COC(=O)CC1C(C)(C)C(=O)C2CC3C4=CC(=O)OC(c5ccoc5)C4(C)CCC3C1(C)C2=O (stereo not drawn) | inactive | inactive | inactive
COc1cccc(S(=O)(=O)Nc2ccc3c(c2)[C@H]2C[C@H](CC(=O)NCC(F)(F)F)O[C@H](CO)[C@H]2O3)c1 | inactive | inactive | inactive
CN(C)[C@@H]1C(=O)C(C(=O)NCN2CCCC2)=C(O)[C@@]2(O)C(O)=C3C(=O)c4c(O)cccc4[C@@](C)(O)[C@H]3C[C@@H]12 | inactive | inactive | active
CCCCCCCCCC(=O)N[C@H]1[C@H](Oc2c3cc4cc2Oc2ccc(cc2Cl)[C@@H](O[C@@H]2O[C@H](CO)[C@@H](O)[C@H](O)[C@H]2NC(C)=O)[C@@H]2NC(=O)[C@H](NC(=O)[C@@H]4NC(=O)[C@H]4NC(=O)[C@@H](Cc5ccc(c(Cl)c5)O3)NC(=O)[C@@H](N)c3ccc(O)c(c3)Oc3cc(O)cc4c3)c3ccc(O)c(c3)-c3c(O[C@H]4O[C@H](CO)[C@@H](O)[C@H](O)[C@@H]4O)cc(O)cc3[C@H](C(=O)O)NC2=O)O[C@H](CO)[C@@H](O)[C@@H]1O | inactive | inactive | active
O=C(c1ccc(F)cc1)C1CCN(CCn2c(=O)[nH]c3ccccc3c2=O)CC1 | inactive | inactive | inactive
Cc1ccc(S(=O)(=O)N(C)C[C@@H]2Oc3c(NC(=O)c4ccncc4)cccc3C(=O)N([C@@H](C)CO)C[C@H]2C)cc1 | inactive | inactive | inactive
O=C(C[C@@H]1CC[C@@H]2[C@H](COC[C@@H](O)CN2C(=O)Nc2cc(Cl)cc(Cl)c2)O1)N1CCOCC1 | inactive | inactive | active
CCN(CC)CCOc1ccc(C(=C(Cl)c2ccccc2)c2ccccc2)cc1.O=C(O)CC(O)(CC(=O)O)C(=O)O | inactive | active | inactive
C[C@H]1CN([C@@H](C)CO)C(=O)Cc2cc(NC(=O)c3ccncc3)ccc2O[C@@H]1CN(C)S(=O)(=O)c1ccc(F)cc1 | inactive | inactive | inactive
O=C(CN1CCOCC1)NCC[C@@H]1CC[C@@H](NC(=O)c2ccccc2F)[C@@H](CO)O1 | active | inactive | inactive
